In publication PMC4081100:
The entries are a selection whose mix differs from that of the whole data set. For part of these data: At the low end of the ranking, values are background and their order means little. The list shows a part of the results. For part of these data: Construct or isoform of the protein are uncertain.

Assays:
Assay in all cases: universal protein binding microarray (PBM)
Settings in all cases: transcription factors of Arabidopsis thaliana; high values mean tight binding; most listed sequences are background and not binding sites; double strand, one strand shown
GST-ANAC092(1-176) = target: T1, GST-ANAC092(1-176) (UniProt Q9FKA0)
T1 sequence: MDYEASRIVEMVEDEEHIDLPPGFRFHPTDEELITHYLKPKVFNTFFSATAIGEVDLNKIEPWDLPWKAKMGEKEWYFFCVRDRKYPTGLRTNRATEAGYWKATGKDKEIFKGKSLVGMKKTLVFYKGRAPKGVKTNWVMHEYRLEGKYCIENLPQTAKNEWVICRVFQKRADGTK

GST-NTL6(1-168) = GST-NTL6(1-168) (UniProt Q9SCK6)
GST-ANAC019 NAC domain = target: T2, GST-ANAC019 NAC domain (UniProt Q9C932)
T2 sequence: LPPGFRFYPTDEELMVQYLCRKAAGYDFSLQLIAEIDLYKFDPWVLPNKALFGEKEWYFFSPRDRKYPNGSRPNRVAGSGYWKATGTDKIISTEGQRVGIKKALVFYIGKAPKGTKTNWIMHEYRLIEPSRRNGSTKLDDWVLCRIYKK

GST-ANAC055(1-171) = target: T3, GST-ANAC055(1-171) (UniProt Q9LDY8)
T3 sequence: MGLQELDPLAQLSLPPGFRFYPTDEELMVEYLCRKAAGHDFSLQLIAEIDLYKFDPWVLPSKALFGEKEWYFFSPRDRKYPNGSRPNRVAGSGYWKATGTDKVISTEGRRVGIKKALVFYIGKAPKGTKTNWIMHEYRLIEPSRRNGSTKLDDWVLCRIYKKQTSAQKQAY

GST-ATAF1 NAC domain = target: T4, GST-ATAF1 NAC domain (UniProt Q39013)
T4 sequence: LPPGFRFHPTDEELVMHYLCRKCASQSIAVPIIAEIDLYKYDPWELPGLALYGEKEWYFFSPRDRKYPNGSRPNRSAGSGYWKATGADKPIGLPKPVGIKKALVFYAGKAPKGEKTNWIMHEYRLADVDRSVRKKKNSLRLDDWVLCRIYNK

[1] = target: T5, GST-ANAC092(1-285) full length (UniProt Q9FKA0)
T5 sequence: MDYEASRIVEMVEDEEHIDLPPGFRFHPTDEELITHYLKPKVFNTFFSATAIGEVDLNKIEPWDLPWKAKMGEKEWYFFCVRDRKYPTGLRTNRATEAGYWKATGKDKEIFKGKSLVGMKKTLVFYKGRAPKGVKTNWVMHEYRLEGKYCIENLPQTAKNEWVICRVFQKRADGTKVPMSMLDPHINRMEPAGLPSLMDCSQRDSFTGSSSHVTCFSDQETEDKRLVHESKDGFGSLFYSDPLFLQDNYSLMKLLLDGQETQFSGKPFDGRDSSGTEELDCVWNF

GST-NAP(1-166) = target: T6, GST-NAP(1-166) (UniProt O49255)
T6 sequence: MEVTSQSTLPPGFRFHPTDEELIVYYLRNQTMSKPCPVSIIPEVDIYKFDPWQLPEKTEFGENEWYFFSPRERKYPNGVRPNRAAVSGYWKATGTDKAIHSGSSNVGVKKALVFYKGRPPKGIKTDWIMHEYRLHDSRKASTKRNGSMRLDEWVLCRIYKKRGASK

GST-NST2(1-184) = target: T7, GST-NST2(1-184) (UniProt Q9M274)
T7 sequence: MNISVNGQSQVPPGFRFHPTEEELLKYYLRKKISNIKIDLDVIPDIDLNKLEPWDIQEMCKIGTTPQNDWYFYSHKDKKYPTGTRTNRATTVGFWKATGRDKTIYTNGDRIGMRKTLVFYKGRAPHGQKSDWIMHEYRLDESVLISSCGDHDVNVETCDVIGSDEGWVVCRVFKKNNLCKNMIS

GST-NTL8 NAC domain = target: T8, GST-NTL8 NAC domain (UniProt Q9XIN7)
T8 sequence: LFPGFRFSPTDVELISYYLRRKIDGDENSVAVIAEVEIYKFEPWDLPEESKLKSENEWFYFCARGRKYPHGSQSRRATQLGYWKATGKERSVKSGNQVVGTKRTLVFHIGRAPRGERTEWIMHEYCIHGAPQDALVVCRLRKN

GST-SND1(1-203) = target: T9, GST-SND1(1-203) (UniProt Q9LPI7)
T9 sequence: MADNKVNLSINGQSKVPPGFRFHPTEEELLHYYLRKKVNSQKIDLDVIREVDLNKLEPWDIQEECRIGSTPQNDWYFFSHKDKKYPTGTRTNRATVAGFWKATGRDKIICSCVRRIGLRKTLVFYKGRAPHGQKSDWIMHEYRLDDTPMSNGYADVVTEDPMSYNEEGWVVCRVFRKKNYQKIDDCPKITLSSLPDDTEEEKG

GST-VND3 NAC domain = target: T10, GST-VND3 NAC domain (UniProt Q9FH59)
T10 sequence: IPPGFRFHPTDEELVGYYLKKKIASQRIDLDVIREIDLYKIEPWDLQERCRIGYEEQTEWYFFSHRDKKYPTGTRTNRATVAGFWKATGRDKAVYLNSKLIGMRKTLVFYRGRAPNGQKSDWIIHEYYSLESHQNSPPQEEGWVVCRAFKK

GST-VND7 NAC domain = target: T11, GST-VND7 NAC domain (UniProt Q9C8W9)
T11 sequence: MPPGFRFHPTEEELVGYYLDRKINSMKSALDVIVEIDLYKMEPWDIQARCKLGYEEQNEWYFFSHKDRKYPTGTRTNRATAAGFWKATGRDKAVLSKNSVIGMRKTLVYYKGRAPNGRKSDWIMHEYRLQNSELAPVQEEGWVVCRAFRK

[2] = target: T12, GST-VOZ2 (Arabidopsis thaliana) (UniProt Q9SLB9)
T12 sequence: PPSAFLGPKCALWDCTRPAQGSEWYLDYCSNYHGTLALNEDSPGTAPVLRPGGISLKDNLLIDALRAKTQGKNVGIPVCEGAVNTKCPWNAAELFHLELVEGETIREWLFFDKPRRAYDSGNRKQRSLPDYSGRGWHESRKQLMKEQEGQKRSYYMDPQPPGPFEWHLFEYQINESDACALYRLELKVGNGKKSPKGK

Sequence of UniProt Q9SCK6 (Q9SCK6 1-168): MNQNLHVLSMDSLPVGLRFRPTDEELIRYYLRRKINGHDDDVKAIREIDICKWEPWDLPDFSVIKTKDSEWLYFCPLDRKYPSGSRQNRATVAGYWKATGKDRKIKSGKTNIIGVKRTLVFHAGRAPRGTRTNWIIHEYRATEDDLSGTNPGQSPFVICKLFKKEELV

| Sequence | binding signal (GST-ANAC092(1-176)) | binding signal (GST-NTL6(1-168)) | binding signal (GST-ANAC019 NAC domain) | binding signal (GST-ANAC055(1-171)) | binding signal (GST-ATAF1 NAC domain) | binding signal [1] | binding signal (GST-NAP(1-166)) | binding signal (GST-NST2(1-184)) | binding signal (GST-NTL8 NAC domain) | binding signal (GST-SND1(1-203)) | binding signal (GST-VND3 NAC domain) | binding signal (GST-VND7 NAC domain) | binding signal [2] |
| --- | --- | --- | --- | --- | --- | --- | --- | --- | --- | --- | --- | --- | --- |
| GGGGGTCA | -0.282 E-score | -0.133 E-score | -0.189 E-score | -0.184 E-score | -0.261 E-score | -0.2 E-score | 0.0274 E-score | -0.246 E-score | -0.065 E-score | -0.156 E-score | -0.344 E-score | -0.24 E-score | 0.108 E-score |
| GTCAAGAC | -0.0651 E-score | 0.02 E-score | 0.0215 E-score | -0.171 E-score | -0.119 E-score | – | -0.0136 E-score | -0.0424 E-score | -0.0632 E-score | -0.0015 E-score | -0.058 E-score | -0.0692 E-score | -0.0624 E-score |
| ACGACCAA | -0.0341 E-score | 0.0375 E-score | 0.00507 E-score | -0.0971 E-score | -0.0378 E-score | -0.00456 E-score | – | -0.0127 E-score | -0.0207 E-score | 0.00585 E-score | -0.102 E-score | -0.0434 E-score | 0.0926 E-score |
| TGACCGCA | -0.13 E-score | -0.21 E-score | -0.133 E-score | -0.225 E-score | -0.153 E-score | -0.0592 E-score | -0.141 E-score | -0.0348 E-score | -0.099 E-score | -0.0873 E-score | -0.236 E-score | -0.199 E-score | 0.0984 E-score |
| CGTCTGAC | -0.16 E-score | -0.183 E-score | 0.0304 E-score | -0.0621 E-score | -0.066 E-score | -0.0675 E-score | -0.012 E-score | -0.0502 E-score | -0.135 E-score | -0.0322 E-score | -0.0622 E-score | -0.0229 E-score | -0.0316 E-score |
| CTGGGTCA | -0.0156 E-score | -0.15 E-score | 0.00458 E-score | -0.157 E-score | -0.092 E-score | – | -0.142 E-score | -0.0783 E-score | 0.00064 E-score | -0.111 E-score | 0.0231 E-score | 0.00884 E-score | -0.0895 E-score |
| GAGTCAGC | -0.0908 E-score | -0.0361 E-score | -0.156 E-score | -0.0596 E-score | -0.0815 E-score | -0.0741 E-score | -0.0573 E-score | -0.0516 E-score | 0.00799 E-score | -0.0307 E-score | -0.0667 E-score | -0.0317 E-score | -0.101 E-score |
| ACATTGAC | -0.0584 E-score | -0.0795 E-score | -0.0611 E-score | -0.0364 E-score | -0.00823 E-score | 0.026 E-score | – | -0.0858 E-score | -0.101 E-score | -0.151 E-score | -0.0458 E-score | -0.0594 E-score | -0.054 E-score |
| AAGTCGTC | 0.00419 E-score | -0.0295 E-score | -0.00353 E-score | 0.0254 E-score | 0.0243 E-score | -0.0176 E-score | – | -0.0124 E-score | -0.0498 E-score | -0.085 E-score | -0.0385 E-score | -0.0216 E-score | -0.142 E-score |
| CCGTTGAC | 0.0264 E-score | -0.0639 E-score | 0.157 E-score | 0.00548 E-score | -0.099 E-score | – | 0.126 E-score | 0.00662 E-score | -0.0298 E-score | 0.0236 E-score | -0.091 E-score | -0.0953 E-score | -0.0943 E-score |
| CAATTGAC | -0.002 E-score | -0.0864 E-score | -0.154 E-score | 0.0141 E-score | 0.0271 E-score | -0.0319 E-score | – | -0.00276 E-score | -0.0119 E-score | -0.0443 E-score | 0.0467 E-score | -0.0518 E-score | -0.0181 E-score |
| CCATTGAC | -0.0305 E-score | -0.0477 E-score | -0.0864 E-score | -0.00537 E-score | -0.079 E-score | -0.026 E-score | -3e-05 E-score | -0.0589 E-score | -0.156 E-score | -0.0201 E-score | -0.0163 E-score | -0.0723 E-score | -0.0315 E-score |
| ACAGGTCA | -0.14 E-score | -0.0946 E-score | -0.0239 E-score | -0.0119 E-score | -0.0995 E-score | -0.182 E-score | 0.00402 E-score | 0.0316 E-score | -0.221 E-score | -0.147 E-score | -0.0421 E-score | -0.0898 E-score | -0.0863 E-score |
